The whole screen tested about 310,000 compounds, of which about 2,200 (0.71%) showed an effect of 50% or more. Effects have a minus sign here. The list shows a part of the results. Where a SMILES comes first, the peptide text is derived from it. [ ]: non-standard residue; d: D form. The star is where a group is joined. Phe(4-Me) = Cc1ccc(C[CH](N)C(=O)O)cc1; Bz = O=C(c1ccccc1)*
Target: human ether-à-go-go-related gene (hERG) potassium channel (human, UniProt Q12809)
Assay: primary screen, population patch clamp on CHO cells stably expressing hERG

Sequence of human ether-à-go-go-related gene (hERG) potassium channel (Q12809 whole entry, looked up): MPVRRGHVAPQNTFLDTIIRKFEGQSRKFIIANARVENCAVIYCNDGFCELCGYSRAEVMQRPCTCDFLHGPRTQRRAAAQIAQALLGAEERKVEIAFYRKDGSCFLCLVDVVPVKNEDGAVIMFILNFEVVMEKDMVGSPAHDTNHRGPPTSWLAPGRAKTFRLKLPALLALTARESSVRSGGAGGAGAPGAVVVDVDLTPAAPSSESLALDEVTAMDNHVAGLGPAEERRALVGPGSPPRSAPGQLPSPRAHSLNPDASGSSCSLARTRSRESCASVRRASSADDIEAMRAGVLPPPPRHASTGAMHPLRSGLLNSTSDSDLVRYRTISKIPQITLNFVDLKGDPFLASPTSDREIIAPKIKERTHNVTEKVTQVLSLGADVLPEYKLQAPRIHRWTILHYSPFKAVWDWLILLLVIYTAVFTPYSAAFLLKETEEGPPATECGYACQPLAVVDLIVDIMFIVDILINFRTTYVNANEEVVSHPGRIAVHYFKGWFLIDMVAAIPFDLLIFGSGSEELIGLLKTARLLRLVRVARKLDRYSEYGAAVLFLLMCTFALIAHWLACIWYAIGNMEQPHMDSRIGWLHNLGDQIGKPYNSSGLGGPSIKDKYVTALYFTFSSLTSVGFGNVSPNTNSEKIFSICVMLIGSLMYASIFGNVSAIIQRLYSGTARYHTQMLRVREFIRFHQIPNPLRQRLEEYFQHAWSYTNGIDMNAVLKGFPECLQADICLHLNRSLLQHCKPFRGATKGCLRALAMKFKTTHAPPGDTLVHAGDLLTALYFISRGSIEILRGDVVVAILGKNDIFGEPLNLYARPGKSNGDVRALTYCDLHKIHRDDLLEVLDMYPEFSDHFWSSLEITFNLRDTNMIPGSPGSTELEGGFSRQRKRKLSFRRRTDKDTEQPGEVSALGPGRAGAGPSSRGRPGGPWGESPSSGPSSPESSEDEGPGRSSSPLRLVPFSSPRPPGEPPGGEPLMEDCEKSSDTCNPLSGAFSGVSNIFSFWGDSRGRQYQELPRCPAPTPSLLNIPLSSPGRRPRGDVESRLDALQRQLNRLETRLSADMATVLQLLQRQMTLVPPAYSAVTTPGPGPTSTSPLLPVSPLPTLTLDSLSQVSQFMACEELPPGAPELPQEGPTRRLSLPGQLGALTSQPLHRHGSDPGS

Row | SMILES | hERG current change (%, negative = inhibition) at 1uM [%]
1 | Cc1c(C)n(C)c2ccc(C(=O)NCCCN(C)C3CCCCC3)cc12 | -9.18
2 | COc1ccc(N(CC(=O)Nc2ccc(OC)cc2OC)S(=O)(=O)c2ccccc2)cc1 | 6.3
3 | Cc1nn(-c2ccccc2)c(N)c1N=Nc1ccc2ccccc2c1 | 7.52
4 | CCN(Cc1cc2ccccc2[nH]c1=O)C(=O)C1CCCCC1 | -0.159
5 | O=C(NCC1CC1)C1(C(F)(F)F)CC(CCCO)CCCO1 (stereo not shown) | 20.8
6 | O=C(OCc1cccc(C(F)(F)F)c1)c1cc(S(=O)(=O)N2CCOCC2)ccc1F | 3.15
7 | O=C(OCn1nnc2ccccc2c1=O)c1cccnc1 | 6.41
8 | CC(=O)Nc1ccc(S(=O)(=O)NCC2CCC(C(=O)NC(C)c3ccc4c(c3)OCCO4)CC2)cc1 (stereo not shown) | 12.2
9 | CSc1ccc(Cl)c(C(=O)NCCOc2cc(C(C)C)ccc2C)c1 | 14.9
10 | COc1cccc(-c2ccc3nnc(SCC(=O)N4CCCC4)n3n2)c1 | 4.55
11 | COc1cc(/C=N/Nc2nncn2/N=C/c2ccc(O)c(OC)c2)ccc1O | 8.08
12 | COc1ccc(N2CCN(C(=O)c3ccc(-n4nc(C)cc4C)cc3)CC2)cc1 | 3.15
13 | CN(C(=O)COC(=O)c1cc(=O)[nH]c2ccccc12)C1CCCCC1 | 6.86
14 | CCOc1c2ccc(C(=O)NC3CCCc4ccccc43)cc2nn1C (stereo not shown) | 10
15 | O=C(NCc1ccccn1)Nc1cccc(NC(=O)NCc2ccccn2)c1 | -1.83
16 | O=C(Nc1c(C(=O)N2CCOCC2)cnn1-c1ccccc1)c1ccccc1 | -9.15
17 | C[n+]1cccc2c(Br)ccc([O-])c21.O | 16.1
18 | COc1cc2c(cc1OC)-c1nnc(C)n1C(C)(C)C2 | 6.66
19 | CCOC(=O)n1c(SCC(=O)N(CC)CC)nc2ccccc21 | 8.17
20 | Cc1cc(C)n(-c2cc(N3CCOCC3)nc(-c3ccccc3)n2)n1 | 3.04
21 | C/C(=C\COc1cc(=O)[nH]c2ccccc12)CCC(O)C(C)(C)O (stereo not shown) | 8.59
22 | Cn1c(N)c(S(=O)(=O)N2CCN(C(=O)c3ccco3)CC2)c(=O)n(C)c1=O | 5.82

Row | SMILES | hERG current change (%, negative = inhibition) at 1uM [%]
23 | O=C(Nc1cccnc1)c1ccccc1NS(=O)(=O)c1ccc(F)cc1 | 5.12
24 | CCc1ccc(NC(=O)C(C)n2nc(C)c([N+](=O)[O-])c2C)cc1 (stereo not shown) | 10.8
25 | O=c1[nH]c(O)c(C=NCCc2ccccc2)c(=O)[nH]1 | 17.1
26 | Cc1ccc(CC(NC(=O)c2ccccc2)C(=O)N2CCCC2C(=O)O)cc1 (stereo not shown) (Bz-[Phe(4-Me)]-Pro-OH; configuration not given here) | -4.66
27 | Cc1ccoc1C(=O)Nc1cccc2ccccc12 | 11
28 | CN(C)C(=O)COC(=O)c1cccnc1Nc1ccccc1F | 1.96
29 | Cc1ccc(C(=O)OCc2cn3ccccc3n2)cc1 | 1.89
30 | Cc1n[nH]c(C)c1CCCCOc1ccccc1[N+](=O)[O-].O=C(O)C(=O)O | 13.3
31 | CCCCn1c(NC(=O)C2CCCCC2)nc2ccccc21 | 8.06
32 | O=C(NCCCN=C1NS(=O)(=O)c2ccccc21)c1ccc(S(=O)(=O)N2CCCCC2)cc1 | 0.873
33 | O=C(Nc1ccccc1F)Oc1cccc(OC(=O)Nc2ccccc2F)c1 | 15.1
34 | Cc1ccc(C)c(-n2cc(CN3CCN(C(=O)c4ncn[nH]4)CC3)c(-c3ccccc3)n2)c1 | -0.306
35 | O=C1NC(c2ccccc2)=CC(c2ccccc2O)N1 (stereo not shown) | 3.34
36 | COc1ccc(C(=O)NCc2nnc(SCC(=O)Nc3cccc(C(F)(F)F)c3)o2)cc1OC | 14.1
37 | COc1ccccc1NC(=O)COC(=O)c1ccccc1C(=O)N1CCN(c2ccccc2)CC1 | 10.2
38 | Cc1ccc(N2CC(=O)N(CC(=O)O)C2=O)cc1 | 14.3
39 | CC(C)N=C1SC(CC(=O)Nc2ccccc2)C(=O)N1C(C)C (stereo not shown) | -6.76
40 | CCOc1ccccc1NC(=O)CCS(=O)(=O)c1ccc(OC)cc1 | 13.6
41 | COc1ccccc1N(CC(=O)N1CCC(C(N)=O)CC1)S(=O)(=O)c1ccccc1 | 16.6
42 | CCCCNc1cc(=O)n(C)c(=O)[nH]1 | 8.93
43 | CC(C)CN(C(=O)c1cccc([N+](=O)[O-])c1)c1c(N)n(CC(C)C)c(=O)[nH]c1=O | 12.2
44 | C=CCn1c(SCC(=O)NCC2CCCO2)nc2sc(C)c(C)c2c1=O (stereo not shown) | 9.34

Row | SMILES | hERG current change (%, negative = inhibition) at 1uM [%]
45 | CCOC(=O)c1ccc(CNS(=O)(=O)c2c(C)ccc3nsnc23)o1 | 6.38
46 | Cc1cc(C)n2nc(SCc3ccccc3C(=O)O)nc2n1 | 11
47 | Cc1nnc(SCC(=O)c2ccc(C(C)C)cc2)s1 | 12
48 | COc1cc(C(=O)Nc2c(C(=O)O)[nH]c3ccc(C)cc23)cc(OC)c1OC | 10.6
49 | COc1ccc(OC)c(C(=O)CSc2nc3ncccc3[nH]2)c1 | 14.1
50 | C/C(=N\Nc1nnc2c3ccccc3n(C)c2n1)c1ccc(C)o1 | -35.3
51 | Cc1cccc(N2C(=O)CS/C2=N\NC(=O)c2cccnc2)c1C | 10.2
52 | O=C1C=C(NCc2ccc(Cl)cc2)CCC1 | -8.04
53 | Cc1ccc(C)c(C(=O)COC(=O)C(C)N2C(=O)C3C4CCC(C4)C3C2=O)c1 (stereo not shown) | 14.5
54 | C[C@H]1CC[C@@]2(O[C@@H](CCO)C[C@@H](O)[C@@H]2O)O1 | 15.1
55 | COc1ccc(Cl)cc1NC(=O)CN1CCN(S(=O)(=O)c2ccc(F)cc2)CC1 | -1.66
56 | CCOC(=O)C1(CCOc2ccccc2)CCN(Cc2cc(OC)c3c(c2)OCO3)CC1 | -7.24
57 | Cc1cc2c(cc1C)C(c1cccc(F)c1)CC(=O)N2 (stereo not shown) | 14.2
58 | O=C(CCc1nnc(CCC2CCCCC2)o1)NCCn1cccn1 | 9.32
59 | CCCCNC(=O)COC(=O)c1ccc(C)c(NC(=O)c2ccco2)c1 | 11.3
60 | COc1cc(/C=N/S(=O)(=O)CCc2ccccc2)cc(OC)c1O | 4.57
61 | OCC(CO)(CO)NC(=S)Nc1cc(Cl)cc(Cl)c1 | 13.8
62 | CCCCCN(C(=O)CCC(=O)OCC(=O)N1CCCC(C)C1)c1c(N)n(CCCC)c(=O)[nH]c1=O (stereo not shown) | 8.32
63 | O=C(COc1ncnc2c(Cl)cc(Cl)cc12)Nc1cc([N+](=O)[O-])ccc1Cl | 7.51
64 | CC1(C)CC2(CC(C)(C)N1)OC(=O)N1CCc3ccccc3C12C (stereo not shown) | 5.41
65 | O=C(NC(=S)Nc1ccc(S(=O)(=O)N2CCCC2)cc1)C1CC1 | 7.05
66 | NC(=O)CN1C(=O)NC2(CCCc3ccccc32)C1=O (stereo not shown) | 13.6

Row | SMILES | hERG current change (%, negative = inhibition) at 1uM [%]
67 | Cc1cccc(NC(=O)C2(c3ccc([N+](=O)[O-])cc3)CCCC2)c1 | -6.17
68 | O=C(NCc1nnc(SCC(=O)N2CCCC2)o1)c1ccccc1F | 13.7
69 | Clc1nc(CN2CCCCC2)nc2sc3c(c12)CCC3 | 3.66
70 | C=CCN=C(CC)C1=C(O)CCCC1=O | 1.76
71 | CC(=O)c1ccc(NC(=O)c2cccc(N3C(=O)c4ccccc4C3=O)c2)cc1 | -1.29
72 | CCC1CCCCN1CCCNC(=O)C1CCN(Cc2nc(-c3ccc(Cl)cc3)oc2C)CC1 (stereo not shown) | 9.92
73 | CCOc1cccc(C2NC(=S)NC(C)=C2C(=O)Nc2ccccc2)c1 (stereo not shown) | 16
74 | CCOc1ccccc1C(=O)Nc1nnc(Cc2ccc(OC)c(OC)c2)s1 | 16.3
75 | CCC(C(=O)OC)n1cnc2c(oc3ccccc32)c1=O (stereo not shown) | 17
76 | CCOC(=O)c1ccc(Cn2c(-c3ccccc3)nnc2-c2ccccc2)o1 | 4.13
77 | O=C(O)c1cc([N+](=O)[O-])cc2c1nnn2O | 13.7
78 | CCOC(=O)c1cc(-c2ccccc2)nn1Cc1cc(C)no1 | 15.9
79 | N#C/C(=C\c1ccc(OCC(N)=O)cc1)S(=O)(=O)c1ccccc1 | 8.39
80 | Cc1nnc(N2CCC(C(=O)NC3CCC(C)CC3)CC2)c2nn(-c3ccc(Cl)cc3)c(C)c12 (stereo not shown) | 14.1
81 | COC(=O)CC1SCCNC1=O (stereo not shown) | 9.24
82 | CN1CC(=O)NC1=NC(=O)c1cc(F)c(F)cc1Cl | 15.8
83 | Cc1ccc(NC(=O)CC2C(=O)N(Cc3ccccc3)C(=S)N2NC(=O)c2cccc(F)c2)c(C)c1 (stereo not shown) | 2.54
84 | CN(C(=O)c1ccc(NC(=O)Cc2cccc(NC(=O)C3CCN(C(=O)C4CCCC4)CC3)c2)cc1)C1CCCC1 | 6.3
85 | COc1ccc(OC)c(/C=N/NC(=O)CC(=O)NC2CCCCC2)c1 | 10.7
86 | COCCN1CCC(CNCc2cn(-c3cc(C)ccc3C)nc2-c2ccccc2)C1 (stereo not shown) | 2.69
87 | CN1C(=O)C(C)(C)c2cc(S(=O)(=O)N(C)Cc3ccccc3)ccc21 | 13.7
88 | O=C(COc1ccccc1C(=O)c1cnn(-c2ccccc2)c1)Nc1ccc2ccccc2c1 | 9.11

Source: publication PMC4336329 (PLoS ONE, 2015)
